The source of these data is the supplement of paper PMC11417369.

± gives the standard deviation of the averaged measurements. The list shows a part of the results.

The test deals with PfAP2-EXP AP2 domain (GST-tagged). The test is described as follows: gcPBM binding intensity (ln(normalized median fluorescence intensity)); higher = stronger DNA binding. A digest of the protocol:
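GST-tagged P. falciparum DNA-binding domains, expressed in E. coli (about 25 μg on average), were applied for 1 h to an Agilent 4 × 180k array of primer-extended double-stranded 36-bp intergenic genomic probes plus negative controls. The binding buffer was 1× PBS with 1% milk, 0.2 mg/ml BSA, 0.5% salmon testes DNA and 0.03% Triton X-100. Bound protein was detected with Alexa488 anti-GST antibody and scanned at 488 nm. Binding intensity is the highest Masliner-normalised natural-log median intensity across replicate spots of either probe orientation.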
For the sequence “CATACAGACATACATACACACATACCTATAAATATA [CACACA_site6995]”, the “gcPBM binding intensity (ln)” value was 8.51 ± 0.53.
As for “AGGAAAAAAGAAAAAACACACATAAATATATATATA [CACACA_site3085]”, the “gcPBM binding intensity (ln)” value worked out at 9.64 ± 0.23.
Turning to “TAGCTCGTTCGGAGCACACACATATATATATATATA [CACACA_site1948]”, the “gcPBM binding intensity (ln)” value was 10.3 ± 0.28.
Then “ATATGTATGTATGTATGTACTTATTTATTTATTAAT [XGTACX_site8018]”, with 8.35 ± 0.2; and “TACATAAATTAAAACACACACACACTAATAAAAAAA [CACACA_site8712]”, with 8.77 ± 0.64; and “ATTCAATATATATACACACACACTTTTAATAATTAA [CACACA_site3770]”, with 8.57 ± 0.38.
With “GTTTTATTTTGTTTCTATTTGACACATGTGATTATT [CACACA_negctrl_site1246]”, the “gcPBM binding intensity (ln)” value came out at 9.12 ± 0.42.
With “CATATATATAATTATTCACACAATAGTTAAAAGTAT [CACACA_site5302]” the figure was 8.63 ± 0.39; with “AAAAAATTATATAAATGTACATTTTGGCTAGACATG [XGTACX_site5977]”, 8.66 ± 0.51.
For the sequence “TTTTTTTTTGAATATTGTACATATATATTACTTTTA [XGTACX_site5520]”, the “gcPBM binding intensity (ln)” value was found to be 8.46 ± 0.43.
Turning to “GATATACAATTTAAGTGTACTATAATAAAATATATA [XGTACX_site3013]”, the “gcPBM binding intensity (ln)” value amounted to 8.26 ± 0.3.
In the case of “ATAAAAAAATATAAATGTACATATATATATATATAT [XGTACX_site5620]”, the “gcPBM binding intensity (ln)” value amounted to 10.2 ± 0.2.
With “ATTTATCTATATATATGTACATATTATTTTTGTGGT [XGTACX_site7390]” the figure was 8.79 ± 0.32; with “TATATTAATTCGTTTTGTACACACATAATGAATAAT [XGTACX_site4618]”, 8.34 ± 0.23.
For ATAAGCATCTTTTGTGTGCACATAACAAAAAAAAAA, the “gcPBM binding intensity (ln)” value turned out to be 8.74 ± 0.22.
For “ATTAAATAAAATCATGCACACAATATATATTTTAAG [CACACA_site2495]”, the “gcPBM binding intensity (ln)” value worked out at 8.46 ± 0.34.
Then “TTTAAAATATTGTATTGTACGCAATAAAAAATACCA [XGTACX_site182]”, with 8.6 ± 0.26; and “TCTAACATATCTTTAATACACACTTAAAAAAGTACT [CACACA_site652]”, with 8.31 ± 0.3.
For the sequence “ATAGATATACATATCACACATATATATATATATATA [CACACA_site4985]”, the “gcPBM binding intensity (ln)” value worked out at 10.2 ± 0.23.
In the case of “AAATACATATATACATGTACATAAATATATATATAT [XGTACX_site5367]”, the “gcPBM binding intensity (ln)” value came out at 9.76 ± 0.38.
Turning to “TAAGGTAGTTCTGTATCACACACATATATATATATA [CACACA_site8693]”, the “gcPBM binding intensity (ln)” value was 10.1 ± 0.26.
In the case of “AATCCATTCTATTTTTTACACACGTATGTAAATATT [CACACA_site8860]”, the “gcPBM binding intensity (ln)” value was 8.71 ± 0.55.
As for “TGAGAAAGCGCATATTGTACTATATATTTTAACCAC [XGTACX_site4098]”, the “gcPBM binding intensity (ln)” value was 8.9 ± 0.54.
Consider “GAAAATAATGTTACATGTACGAATATGTAACTATTG [XGTACX_site6833]”, for which the “gcPBM binding intensity (ln)” value turned out to be 8.48 ± 0.35.
“AATATATATGGACATGCATGGACATAATAATCTATT [TGCATGCA_site838]”: the “gcPBM binding intensity (ln)” value is 8.89 ± 0.47.
As for “CATAAAAATGTATCAAGTACACATTTATTTATCCAT [XGTACX_site152]”, the “gcPBM binding intensity (ln)” value came to 8.38 ± 0.23.
As to “TACAGATAAAAGTACACACACACACCGATATATATA [CACACA_site4675]”, the “gcPBM binding intensity (ln)” value is 8.86 ± 0.38.
On to “GTATAACACAAGTGAAGTACAGGGGTAAACATTTAT [XGTACX_site3203]”, for which the “gcPBM binding intensity (ln)” value worked out at 8.91 ± 0.59.
“ATAAAAAAATATGTAAACATATATATGTATTTATGT [CACACA_negctrl_site1517]”: the “gcPBM binding intensity (ln)” value worked out at 8.36 ± 0.45.
With “TTAAAATAAAGAGCAGTGCGCATATTTTGTTATTAT [GTGCAC_site9753]”, the “gcPBM binding intensity (ln)” value is 8.56 ± 0.29.
For the sequence “TTTTTATATTTTATTAGTACTTATTATATATATAAT [XGTACX_site4900]”, the “gcPBM binding intensity (ln)” value worked out at 8.56 ± 0.34.
Regarding “AAACAATTTTTATTTTGTACATAACAATATATTTAT [XGTACX_site1375]”, the “gcPBM binding intensity (ln)” value was found to be 8.4 ± 0.18.
“TTTTTTTTTAAAGAAAATAAAAATATGTACTTGACA [CACACA_negctrl_site1113]”: the “gcPBM binding intensity (ln)” value turned out to be 8.28 ± 0.33.
Take “TTATTTGTTTAATATGCATGCTAAAAGGGTTGATGT [TGCATGCA_site581]”: the “gcPBM binding intensity (ln)” value is 9.36 ± 0.11.
Take “ATTTTACATATTTGCACACATATATTTATATACATA [CACACA_site854]”: the “gcPBM binding intensity (ln)” value amounted to 8.89 ± 0.4.
Consider “AATATAAAAATGCACACACACAAAAAAAAAAAAAAA [CACACA_site6546]”, for which the “gcPBM binding intensity (ln)” value is 8.37 ± 0.39.
On to “GAGTAAAACAAATATACACACCATAAAGTTATAAAA [CACACA_site5008]”, for which the “gcPBM binding intensity (ln)” value is 8.63 ± 0.47.
“AATTTAAATTCATCACGTACATACGTGAATATACAC [XGTACX_site5220]”: the “gcPBM binding intensity (ln)” value was found to be 8.77 ± 0.32.
Turning to “ATGTAACACATATTTGGTACAGATAGATAAAAGTAT [XGTACX_site8291]”, the “gcPBM binding intensity (ln)” value was 8.92 ± 0.45.
With “TATATATATATATTCACACATAAAAATAAAATAAAA [CACACA_site4774]”, the “gcPBM binding intensity (ln)” value came out at 9.95 ± 0.32.
As to “GTATAATATATTTATAGTACATAATTATTTATAAAT [XGTACX_site1826]”, the “gcPBM binding intensity (ln)” value came out at 8.32 ± 0.14.
With “TTTTTAAATAACCTATATATTATTATGAAACATAAA [CACACA_negctrl_site916]” the figure was 8.02 ± 0.42; with “ATATATATATATGTGTGTACTTATTTATTTATTTGT [XGTACX_site549]”, 10 ± 0.26; with “TAATAAATCCTATATAGTACATATATGCAAGTATGT [XGTACX_site3955]”, 8.75 ± 0.24.
As to “TTTTCTTAATATTTATGTATATATATAATATGATAT [TGCATGCA_negctrl_site572]”, the “gcPBM binding intensity (ln)” value was found to be 8.37 ± 0.49.
Then “AAAAATATAAACTGCACACACAAAAAAAAAAGAGAA [CACACA_site1367]”, with 8.87 ± 0.59; and “ATTGATTTTTAATATACACACATAAGTACCACAAAA [CACACA_site339]”, with 8.77 ± 0.38.
Then “ACATTAATATAAAGCACACATATATATAATATATAT [CACACA_site508]”, with 8.59 ± 0.28; and “TATAACATATTTATATATGACATTATCTATTCATTT [CACACA_negctrl_site864]”, with 8.21 ± 0.42; and “CATGATATATAAATATGTACATATATATATATATAT [XGTACX_site1760]”, with 10.2 ± 0.23.
As for “TAATAATAATATAAAATACACACCTATTATTTTTAC [CACACA_site4003]”, the “gcPBM binding intensity (ln)” value was 8.28 ± 0.41.
With “TTAATATTGTATCCAAGTACACAAATTATTATATTT [XGTACX_site8067]”, the “gcPBM binding intensity (ln)” value is 8.29 ± 0.092.
As to “ATATTATGTGATTGTGCACACTGGAGATTTTTTTTA [CACACA_site1453]”, the “gcPBM binding intensity (ln)” value amounted to 8.96 ± 0.057.
As to “CCCGTAAATACAAAAAGTACAAAAGTTCATCTTATA [XGTACX_site1154]”, the “gcPBM binding intensity (ln)” value was determined as 8.65 ± 0.5.
“CAATATTATTATATTTGTACACATGCGTATTTTTTA [XGTACX_site4154]”: the “gcPBM binding intensity (ln)” value is 8.51 ± 0.43.
With “ATATAAATATAAACATGTACATATATATATATATAT [XGTACX_site2824]”, the “gcPBM binding intensity (ln)” value was 10.3 ± 0.79.
As to “GAAACGTTTTTGAGTAGTACACACACAATAAGGATG [XGTACX_site6809]”, the “gcPBM binding intensity (ln)” value was 9.02 ± 0.45.
